The text below walks through data of the antibiotic and cytotoxicity screens of Wong et al. (2023).

One assay has as its system HSkMC. The experiment in a line: cytotoxicity call (relative viability < 0.9). Conditions: 10 µM.
The subject of the next assay is HepG2. The experiment in a line: cytotoxicity call (relative viability < 0.9). As to conditions: 10 µM.
The test system of another assay is S. aureus RN4220. The assay is described as follows: growth inhibition call (relative growth <= 0.2). As to conditions: 50 µM.

SMILES strings stand for the structures. The list shows a part of the results.

Regarding `Cc1ccc(S(=O)(=O)N(C)C[C@H]2Oc3c(NC(=O)Nc4ccc(C(F)(F)F)cc4)cccc3C(=O)N([C@H](C)CO)C[C@@H]2C)cc1`, the cytotoxicity call with HSkMC and in the assay with HepG2 was “inactive” throughout. The growth inhibition call with S. aureus RN4220 was “inactive”.
Regarding `CC(=O)OC[C@H](N)C(=O)O`, the cytotoxicity call in the assay with HSkMC and with HepG2 was “inactive” each time. In addition, the growth inhibition call in the assay with S. aureus RN4220 is “inactive”.
For the compound `COc1cccc2ccc(Cl)nc12`, the cytotoxicity call in the assay on HSkMC and in the assay with HepG2 was “inactive” each time. The growth inhibition call in the assay with S. aureus RN4220 is “inactive”.
On to `C[C@@H]1CN([C@H](C)CO)C(=O)Cc2cc(NC(=O)c3ccncc3)ccc2O[C@H]1CN(C)S(=O)(=O)c1cccs1`, for which the cytotoxicity call in the assay on HSkMC and in the assay on HepG2 was “inactive” each time. For the same compound, in the assay with S. aureus RN4220, the growth inhibition call was “inactive”.
With `COc1ccc(S(=O)(=O)N(C)C[C@@H]2OCCCC[C@H](C)Oc3ccc(NC(=O)NC4CCCCC4)cc3C(=O)N([C@H](C)CO)C[C@H]2C)cc1`, the cytotoxicity call with HSkMC and in the assay on HepG2 was “inactive” each time. Besides, the growth inhibition call with S. aureus RN4220 is “inactive”.
`C[C@H]1CN([C@@H](C)CO)C(=O)c2cc(NC(=O)Nc3ccccc3)ccc2O[C@@H]1CN(C)Cc1ccc(C(F)(F)F)cc1`: in the assay on HSkMC, the cytotoxicity call is “inactive”. In addition, the cytotoxicity call in the assay with HepG2 is “active”. Moreover, in the assay with S. aureus RN4220, the growth inhibition call is “inactive”.
Turning to `CNc1nc(SCC(N)=O)nc(N2CCOCC2)n1`, the cytotoxicity call in the assay with HSkMC was “inactive”. Besides, the cytotoxicity call with HepG2 was “active”. In addition, the growth inhibition call with S. aureus RN4220 is “inactive”.
As for `COCc1cn(CC[C@H]2CC[C@H](NC(=O)CCN3CCCCC3)[C@H](CO)O2)nn1`, the cytotoxicity call with HSkMC and with HepG2 was “inactive” throughout. The growth inhibition call in the assay with S. aureus RN4220 is “inactive”.
`CN1CCN(C(=O)C[C@@H]2CC[C@@H]3[C@H](COc4ccc(NC(=O)c5ccc(F)c(F)c5)cc4C(=O)N3C)O2)CC1`: the cytotoxicity call with HSkMC and in the assay on HepG2 was “inactive” each time. Also, the growth inhibition call in the assay with S. aureus RN4220 is “inactive”.
Turning to `C[C@@H]1CN([C@H](C)CO)C(=O)Cc2cc(NC(=O)Cn3cnnn3)ccc2O[C@H]1CN(C)C(=O)Nc1ccc2c(c1)OCO2`, the cytotoxicity call in the assay on HSkMC and with HepG2 was “inactive” each time. Also, in the assay on S. aureus RN4220, the growth inhibition call is “inactive”.
With `C[C@@H]1CN([C@H](C)CO)S(=O)(=O)c2ccc(-c3ccncc3)cc2O[C@H]1CN(C)Cc1ccc(Oc2ccccc2)cc1`, the cytotoxicity call with HSkMC and in the assay on HepG2 was “inactive” throughout. In addition, the growth inhibition call in the assay with S. aureus RN4220 was “inactive”.
As to `Cc1noc(C)c1S(=O)(=O)Nc1ccc2c(c1)C(=O)N([C@@H](C)CO)C[C@H](C)[C@H](CN(C)Cc1ccncc1)O2`, the cytotoxicity call with HSkMC and in the assay on HepG2 was “inactive” throughout. For the same compound, in the assay with S. aureus RN4220, the growth inhibition call is “inactive”.
With `CC(C)CC#Cc1cnc2c(c1)C(=O)N([C@H](C)CO)C[C@H](C)[C@@H](CN(C)C(=O)CN1CCOCC1)O2`, the cytotoxicity call with HSkMC and in the assay on HepG2 was “inactive” in each case. Also, the growth inhibition call with S. aureus RN4220 is “inactive”.
With `C[C@@H]1CN([C@@H](C)CO)C(=O)Cc2cc(NC(=O)Cn3cnnn3)ccc2O[C@@H]1CN(C)C(=O)Nc1ccc(C(F)(F)F)cc1`, the cytotoxicity call with HSkMC and in the assay with HepG2 was “inactive” each time. Also, in the assay on S. aureus RN4220, the growth inhibition call is “inactive”.
Take `COc1ccccc1O[C@@H](C)C(=O)NN`: the cytotoxicity call in the assay with HSkMC and with HepG2 was “inactive” throughout. Moreover, in the assay on S. aureus RN4220, the growth inhibition call was “inactive”.
`C[C@@H]1CN([C@@H](C)CO)S(=O)(=O)c2ccc(-c3ccncc3)cc2O[C@@H]1CN(C)C(=O)c1ccc2c(c1)OCO2`: the cytotoxicity call in the assay with HSkMC and in the assay with HepG2 was “inactive” in each case. Further, the growth inhibition call with S. aureus RN4220 was “inactive”.
On to `C[C@@H]1CCCCO[C@H](CN(C)Cc2ccc(C(F)(F)F)cc2)[C@@H](C)CN([C@H](C)CO)C(=O)c2cc(NC(=O)Nc3ccc4c(c3)OCO4)ccc2O1`, for which, in the assay with HSkMC, the cytotoxicity call was “inactive”. Also, in the assay with HepG2, the cytotoxicity call was “active”. Moreover, in the assay on S. aureus RN4220, the growth inhibition call was “inactive”.
For the compound `C[C@@H]1CN([C@H](C)CO)S(=O)(=O)c2ccc(C#C[C@@H](C)O)cc2O[C@@H]1CN(C)C(=O)Nc1ccccc1`, the cytotoxicity call in the assay on HSkMC and with HepG2 was “inactive” in each case. The growth inhibition call in the assay with S. aureus RN4220 is “inactive”.
`CC(C)NC(=O)N(C)C[C@@H]1Oc2ccc(NC(=O)CCCN(C)C)cc2C(=O)N([C@@H](C)CO)C[C@H]1C`: the cytotoxicity call in the assay on HSkMC and in the assay with HepG2 was “inactive” in each case. For the same compound, the growth inhibition call in the assay with S. aureus RN4220 was “inactive”.
Consider `C[C@H](CO)N1C[C@H](C)[C@H](CN(C)C(=O)NC2CCCCC2)Oc2ncc(C#CC(C)(C)O)cc2C1=O`, for which the cytotoxicity call in the assay with HSkMC and with HepG2 was “inactive” each time. In addition, in the assay on S. aureus RN4220, the growth inhibition call was “inactive”.
As for `NC1(C(=O)O)CC1`, the cytotoxicity call in the assay with HSkMC and in the assay on HepG2 was “inactive” each time. Also, the growth inhibition call with S. aureus RN4220 is “inactive”.
On to `C[C@H](CO)N1C[C@H](C)[C@H](CN(C)S(=O)(=O)c2ccccc2)Oc2ncc(C#CC3(O)CCCC3)cc2C1=O`, for which the cytotoxicity call with HSkMC and in the assay on HepG2 was “inactive” each time. Besides, in the assay on S. aureus RN4220, the growth inhibition call was “inactive”.
Take `C[C@@H]1CN([C@@H](C)CO)C(=O)Cc2cc(NS(=O)(=O)c3cccs3)ccc2O[C@@H]1CN(C)Cc1ccc(Cl)c(Cl)c1`: the cytotoxicity call in the assay on HSkMC and in the assay with HepG2 was “inactive” each time. In the assay on S. aureus RN4220, the growth inhibition call was “inactive”.
As for `CO[C@H]1CN(C)C(=O)c2cc(NS(C)(=O)=O)ccc2OC[C@@H](C)N(C(=O)c2ccc3c(c2)OCO3)C[C@H]1C`, the cytotoxicity call with HSkMC and in the assay on HepG2 was “inactive” in each case. Further, the growth inhibition call in the assay on S. aureus RN4220 is “inactive”.
For the compound `C[C@@H]1CN([C@@H](C)CO)C(=O)c2cc(C#CC3(O)CCCC3)cnc2O[C@H]1CN(C)S(=O)(=O)c1ccccc1`, the cytotoxicity call with HSkMC and in the assay with HepG2 was “inactive” in each case. In addition, the growth inhibition call in the assay on S. aureus RN4220 is “inactive”.
Take `C[C@@H]1CN([C@H](C)CO)C(=O)c2cc(NC(=O)Cn3cnnn3)ccc2O[C@@H]1CN(C)C(=O)NC1CCCCC1`: the cytotoxicity call in the assay with HSkMC and in the assay on HepG2 was “inactive” in each case. In the assay with S. aureus RN4220, the growth inhibition call is “inactive”.
With `Cl.Cl.Cl.NCCCCNCCCN`, the cytotoxicity call in the assay on HSkMC (human skeletal muscle cells) and in the assay with HepG2 was “inactive” throughout. In the assay on S. aureus RN4220, the growth inhibition call is “inactive”.
In the case of `Cc1ccc(S[C@]2(C(=O)NCC(F)(F)F)CC(=O)N(Cc3ccccc3Cl)[C@@H]2c2ccc(CO)cc2I)cc1`, the cytotoxicity call in the assay with HSkMC and in the assay with HepG2 was “inactive” throughout. For the same compound, the growth inhibition call with S. aureus RN4220 was “inactive”.
